Test results published in patent US12390508B2, “Brain natriuretic peptide engrafted antibodies” (Boehringer Ingelheim International GmbH, priority 2018, dated 2025).

Assay: Purity of purified compound samples by capillary Gel Electrophoresis under reduced conditions
Conditions: for % purity pcs: reduced conditions
Procedure: The purity of purified compound samples (Example 5, Table 7, column “% purity pcs”) was determined by capillary Gel Electrophoresis according to manufacturer's instructions (LabChip GX, Caliper Life Sciences) under reduced conditions. The purity in % was calculated as sum of peak areas corresponding to the intact light and heavy chain relative to the sum of all peaks observed.

[1] = purified compound samples, capillary Gel Electrophoresis
[2] = Table 9 (excerpt of Table 7), capillary gel electrophoresis, sum of intact light and heavy chain peaks

Molecule | % purity pcs [1] [%] | % purity pcs [2] [%] | Purity (Table 11, ANP engrafted IgG4 constructs with varying germline sequences) | % purity pcs (Table 8, purified compound samples, capillary gel electrophoresis) [%]
TPP-10274: ANP engrafted antibody, CDRH3; HC SEQ ID NO 68, LC SEQ ID NO 66 (antibody, listed as Homo sapiens, NP engrafted HC) heavy: EVQLLESGGGLVQPGGSLRLSCAASGFTFSSYAMSWVRQAPGKGLEWVSAISGSGGSTYYADSVKGRFTISRDNSKNTLYLQMNSLRAEDTAVYYCTSVHQETKKYQSSPDGGSGGSLRRSSCFGGRMDRIGAQSGLGCNSFRYGSYSYTYNYEWHVDVWGQGTLVTVSS[in this place human IgG1 constant region] light: QSVLTQPPSVSGAPGQRVTISCTGSSSNIGAGYDVHWYQQLPGTAPKLLIYGNSNRPSGVPDRFSGSKSGTSASLAITGLQAEDEADYYCQSYDSSLSGVVFGGGTKLTVLGQPKAAPSVTLFPPSSEELQANKATLVCLISDFYPGAVTVAWKADSSPVKAGVETTTPSKQSNNKYAASSYLSLTPEQWKSHRSYSCQVTHEGSTVEKTVAPTECS | 84 | – | – | –
TPP-13054: ANP engrafted antibody, CDRH1; HC SEQ ID NO 77, LC SEQ ID NO 66 (antibody, listed as Homo sapiens, NP engrafted HC) heavy: EVQLLESGGGLVQPGGSLRLSCAASGFTFGSGSGSGGSGGSLRRSSCFGGRMDRIGAQSGLGCNSFRYGGSGGSGSGSGMSWVRQAPGKGLEWVSAISGSGGSTYYADSVKGRFTISRDNSKNTLYLQMNSLRAEDTAVYYCAKLTGAEYFQHWGQGTLVTVSS[in this place human IgG1 constant region] light: QSVLTQPPSVSGAPGQRVTISCTGSSSNIGAGYDVHWYQQLPGTAPKLLIYGNSNRPSGVPDRFSGSKSGTSASLAITGLQAEDEADYYCQSYDSSLSGVVFGGGTKLTVLGQPKAAPSVTLFPPSSEELQANKATLVCLISDFYPGAVTVAWKADSSPVKAGVETTTPSKQSNNKYAASSYLSLTPEQWKSHRSYSCQVTHEGSTVEKTVAPTECS | 96 | 96 | – | –
TPP-10290: ANP engrafted antibody, CDRH3; HC SEQ ID NO 71, LC SEQ ID NO 66 (antibody, listed as Homo sapiens, NP engrafted HC) heavy: [in this place about 100 residues]VHPNPNPNPNSPDGGSGGSLRRSSCFGGRMDRIGAQSGLGCNSFRYGSYNPNPNPNPHVDVWGQGTTVTVSS[in this place human IgG1 constant region] light: QSVLTQPPSVSGAPGQRVTISCTGSSSNIGAGYDVHWYQQLPGTAPKLLIYGNSNRPSGVPDRFSGSKSGTSASLAITGLQAEDEADYYCQSYDSSLSGVVFGGGTKLTVLGQPKAAPSVTLFPPSSEELQANKATLVCLISDFYPGAVTVAWKADSSPVKAGVETTTPSKQSNNKYAASSYLSLTPEQWKSHRSYSCQVTHEGSTVEKTVAPTECS | 99 | 99 | – | –
TPP-10294: ANP engrafted antibody, CDRH1; HC SEQ ID NO 72, LC SEQ ID NO 66 (antibody, listed as Homo sapiens, NP engrafted HC) heavy: EVQLLESGGGLVQPGGSLRLSCAASGFTFGSGSGSGSGSGSPDGGSGGSLRRSSCFGGRMDRIGAQSGLGCNSFRYGSYGSGSGSGSGSGMSWVRQAPGKGLEWVSAISGSGGSTYYADSVKGRFTISRDNSKNTLYLQMNSLRAEDTAVYYCAKLTGAEYFQHWGQGTLVTVSS[in this place human IgG1 constant region] light: QSVLTQPPSVSGAPGQRVTISCTGSSSNIGAGYDVHWYQQLPGTAPKLLIYGNSNRPSGVPDRFSGSKSGTSASLAITGLQAEDEADYYCQSYDSSLSGVVFGGGTKLTVLGQPKAAPSVTLFPPSSEELQANKATLVCLISDFYPGAVTVAWKADSSPVKAGVETTTPSKQSNNKYAASSYLSLTPEQWKSHRSYSCQVTHEGSTVEKTVAPTECS | 97 | 97 | 99 | –
TPP-13061: ANP engrafted antibody, CDRH2; HC SEQ ID NO 78, LC SEQ ID NO 66 (antibody, listed as Homo sapiens, NP engrafted HC) heavy: EVQLLESGGGLVQPGGSLRLSCAASGFTFSSYAMSWVRQAPGKGLEWVSAISVVVTSHQAPGEGGSGGSLRRSSCFGGRMDRIGAQSGLGCNSFRYGGSTPLKSLASTYYADSVKGRFTISRDNSKNTLYLQMNSLRAEDTAVYYCAKLTGAEYFQHWGQGTLVTVSS[in this place human IgG1 constant region] light: QSVLTQPPSVSGAPGQRVTISCTGSSSNIGAGYDVHWYQQLPGTAPKLLIYGNSNRPSGVPDRFSGSKSGTSASLAITGLQAEDEADYYCQSYDSSLSGVVFGGGTKLTVLGQPKAAPSVTLFPPSSEELQANKATLVCLISDFYPGAVTVAWKADSSPVKAGVETTTPSKQSNNKYAASSYLSLTPEQWKSHRSYSCQVTHEGSTVEKTVAPTECS | 96 | 96 | – | –
TPP-10765: ANP engrafted antibody, CDRH2; HC SEQ ID NO 73, LC SEQ ID NO 66 (antibody, listed as Homo sapiens, NP engrafted HC) heavy: EVQLLESGGGLVQPGGSLRLSCAASGFTFSSYAMSWVRQAPGKGLEWVSAISGPNPNKNPNPNPGSGGSLRRSSCFGGRMDRIGAQSGLGCNSFRYGSNPNENPNPNPGSTYYADSVKGRFTISRDNSKNTLYLQMNSLRAEDTAVYYCAKLTGAEYFQHWGQGTLVTVSS[in this place human IgG1 constant region] light: QSVLTQPPSVSGAPGQRVTISCTGSSSNIGAGYDVHWYQQLPGTAPKLLIYGNSNRPSGVPDRFSGSKSGTSASLAITGLQAEDEADYYCQSYDSSLSGVVFGGGTKLTVLGQPKAAPSVTLFPPSSEELQANKATLVCLISDFYPGAVTVAWKADSSPVKAGVETTTPSKQSNNKYAASSYLSLTPEQWKSHRSYSCQVTHEGSTVEKTVAPTECS | 95 | 95 | – | –
TPP-10845: ANP engrafted antibody, CDRH2; HC SEQ ID NO 74, LC SEQ ID NO 66 (antibody, listed as Homo sapiens, NP engrafted HC) heavy: EVQLLESGGGLVQPGGSLRLSCAASGFTFSSYAMSWVRQAPGKGLEWVSAISGSTYISNVNHKPDGGSGGSLRRSSCFGGRMDRIGAQSGLGCNSFRYGSNTKVDKKVEGGSTYYADSVKGRFTISRDNSKNTLYLQMNSLRAEDTAVYYCAKLTGAEYFQHWGQGTLVTVSS[in this place human IgG1 constant region] light: QSVLTQPPSVSGAPGQRVTISCTGSSSNIGAGYDVHWYQQLPGTAPKLLIYGNSNRPSGVPDRFSGSKSGTSASLAITGLQAEDEADYYCQSYDSSLSGVVFGGGTKLTVLGQPKAAPSVTLFPPSSEELQANKATLVCLISDFYPGAVTVAWKADSSPVKAGVETTTPSKQSNNKYAASSYLSLTPEQWKSHRSYSCQVTHEGSTVEKTVAPTECS | 95 | 95 | – | –
TPP-10283: ANP engrafted antibody, CDRH2; HC SEQ ID NO 70, LC SEQ ID NO 66 (antibody, listed as Homo sapiens, NP engrafted HC) heavy: EVQLLESGGGLVQPGGSLRLSCAASGFTFSSYAMSWVRQAPGKGLEWVSAISGPNPNPNPNPNSPDGGSGGSLRRSSCFGGRMDRIGAQSGLGCNSFRYGSYNPNPNPNPNPGSTYYADSVKGRFTISRDNSKNTLYLQMNSLRAEDTAVYYCAKLTGAEYFQHWGQGTLVTVSS[in this place human IgG1 constant region] light: QSVLTQPPSVSGAPGQRVTISCTGSSSNIGAGYDVHWYQQLPGTAPKLLIYGNSNRPSGVPDRFSGSKSGTSASLAITGLQAEDEADYYCQSYDSSLSGVVFGGGTKLTVLGQPKAAPSVTLFPPSSEELQANKATLVCLISDFYPGAVTVAWKADSSPVKAGVETTTPSKQSNNKYAASSYLSLTPEQWKSHRSYSCQVTHEGSTVEKTVAPTECS | 98 | 98 | – | –
B12 (antibody) heavy: [in this place about 100 residues]GITGTKKYQSSPDGGSGGMVQGSGCFGRKMDRISSSSGLGCKVLRRGSYSYTYNYAEYFQHWGQGTLVTVSS[in this place human IgG1 constant region] light: QSVLTQPPSVSGAPGQRVTISCTGSSSNIGAGYDVHWYQQLPGTAPKLLIYGNSNRPSGVPDRFSGSKSGTSASLAITGLQAEDEADYYCQSYDSSLSGVVFGGGTKLTVLGQPKAAPSVTLFPPSSEELQANKATLVCLISDFYPGAVTVAWKADSSPVKAGVETTTPSKQSNNKYAASSYLSLTPEQWKSHRSYSCQVTHEGSTVEKTVAPTECS | – | – | – | 97
